Results reported in the supplement of paper PMC12217912.
This is one part of the list. The full chains were built here from the parent and the listed change. Inactive controls read about 0.05.

B1: TEV protease; numbered along this chain (parent)
chain: MGESLFKGPRDYNPISSSICHLTNESDGHTTSLYGIGFGPFIITNKHLFRRNNGTLVVQSLHGVFKVKDTTTLQQHLVDGRDMIIIRMPKDFPPFPQKLKFREPQREERICLVTTNFQTKSMSSMVSDTSCTFPSGDGIFWKHWIQTKDGQCGSPLVSTRDGFIVGIHSASNFTNTNNYFTSVPKNFMELLTNQEAQQWVSGWRLNADSVLWGGHKVFMVKPEEPFQPVKEATQL

Variants of: B1
Assay: raw area under fraction-flipped curve 0-4 h after induction (AUC4h, not background-subtracted), DNA-recorder readout of cleavage of the substrate (dimensionless); higher = more cleavage of the substrate by the protease variant
Details: temperature: 34 °C; time window: 0-4 h after rhamnose induction
Protocol: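 In vivo DNA recorder in E. coli TOP10(DE3) ΔrhaA at 34 °C. Each TEVp single-site mutant (parent TEVp 0) is paired with a single-site variant of the 7-mer TEVs (canonical ENLYFQ|S). The substrate sits between flexible linkers in a Bxb1-sfGFP-TEVs-SsrA fusion, so cleavage stabilises Bxb1 and speeds flipping of a recombination array, read by NGS. The value is the raw area under the fraction-flipped curve over 0-4 h after rhamnose induction (AUC4h), with ≥20 reads per time point. It is not background-subtracted; inactive controls average about 0.047.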
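Further: Bxb1 expression induced with 0.2% (w/v) L-rhamnose at OD600 near 0.5, cultures sampled hourly, flipped fraction per protease–substrate barcode pair counted by paired-end Illumina sequencing.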

Variant	area with substrate CNLYFQS	area with substrate DNLYFQS	area with substrate FNLYFQS	area with substrate GNLYFQS	area with substrate HNLYFQS	area with substrate INLYFQS	area with substrate KNLYFQS	area with substrate NNLYFQS	area with substrate RNLYFQS	area with substrate TNLYFQS	area with substrate YNLYFQS	area with substrate LNLYFQS	area with substrate MNLYFQS	area with substrate PNLYFQS	area with substrate SNLYFQS	area with substrate WNLYFQS	area with substrate VNLYFQS	area with substrate QNLYFQS
A196D	0.0669	0.0818	0.0646	0.0464	0.0616	0.0493	0.0662	0.0723	0.068	0.0884	0.0777							
T233M	0.0993	0.0612		0.0712	0.0565	0.0754	0.0672	0.0752		0.0677	0.0698	0.0541	0.0432	0.0646	0.0754	0.0642		
I167R	0.0732	0.0404	0.0468	0.0408	0.0417	0.0476		0.0566		0.0466			0.0443	0.0528	0.055	0.0479	0.0546	
P222I	0.0772	0.0835			0.0567	0.0666	0.0631	0.0663		0.056	0.0557	0.0596	0.0562	0.0582	0.0941			
P225K	0.0604	0.0707	0.057	0.0708	0.0715	0.0638	0.0664	0.0637		0.066	0.0844	0.0608	0.0658	0.0748		0.0759		0.0708
F49Q	0.0488	0.0512	0.056		0.0558	0.0538	0.0699	0.0543	0.0603	0.0576	0.0544				0.0621	0.044	0.0585	
G39L	0.0282	0.0326	0.0386	0.0434	0.0365		0.0386	0.0431	0.0499	0.0338		0.0559			0.0628	0.0287		0.036
N175L	0.0552	0.064		0.0587		0.0981		0.0584		0.0505	0.0719	0.061	0.0594	0.059	0.0268			
K221L	0.0593	0.0917	0.0621	0.0655	0.054		0.0681	0.0746		0.0871	0.0811		0.0581	0.0603	0.0642	0.0565	0.0648	0.0662
G162R	0.0577	0.0403		0.0627	0.0598	0.0565	0.0294		0.0744		0.0755	0.0788	0.07	0.0783	0.0564	0.0642	0.0583	
H62Y	0.0609	0.101			0.0685	0.062		0.0725		0.0631	0.0695	0.069	0.0733		0.0735	0.0631		0.0777
E231V	0.0586	0.0728	0.0532	0.0738	0.0598		0.0641			0.0677	0.0329	0.0574	0.0634	0.0674	0.0751	0.0644	0.069	
G54M	0.064	0.0591	0.0626	0.08	0.052		0.046	0.0651	0.0464	0.0536	0.0631	0.0687	0.0506	0.0559	0.0584	0.0477		
